The results in this text go back to paper PMC4242493.

The list shows a part of the results. The list includes weakly bound sequences.

The target in the assay is MaxL homodimer (UniProt P61244). The assay is described as follows: universal protein-binding microarray (PBM). Conditions: PBS-based mixture, 10 nM His-tagged protein dimer, 2% milk, 200 ng/uL BSA, 50 ng/uL salmon testes DNA, 0.02% TX-100; detection with Alexa 488 anti-His …; high values mean tight binding; most listed sequences are background and not binding sites; double strand, one strand shown.
Sequence of UniProt P61244 (P61244 whole entry): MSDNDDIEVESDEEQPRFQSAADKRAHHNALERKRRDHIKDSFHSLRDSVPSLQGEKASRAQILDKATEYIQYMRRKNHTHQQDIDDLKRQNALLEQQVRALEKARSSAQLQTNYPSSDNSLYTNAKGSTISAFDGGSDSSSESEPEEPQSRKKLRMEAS
On to TAACGTCA, for which the binding signal (normalized occupancy) stood at 0.0767.

CTCAGGGC: the binding signal (normalized occupancy) was 0.0683.

As to CCAGAGAA, the binding signal (normalized occupancy) amounted to 0.0767.

Consider AAGCATGC, for which the binding signal (normalized occupancy) was found to be 0.118.

Take CAGGGTTA: the binding signal (normalized occupancy) worked out at 0.0754.

In the case of CCGCTAGG, the binding signal (normalized occupancy) turned out to be 0.0685.

Turning to GCCTTCCA, the binding signal (normalized occupancy) came to 0.0728.

For the sequence AGCCACGC, the binding signal (normalized occupancy) amounted to 0.109.

In the case of GTGCTTTA, the binding signal (normalized occupancy) came out at 0.0871.

Regarding ACTGCAAG, the binding signal (normalized occupancy) turned out to be 0.0662.

As for AGCACTGC, the binding signal (normalized occupancy) is 0.0715.

Turning to AACTGCCC, the binding signal (normalized occupancy) turned out to be 0.0722.

For the sequence AATCGAGT, the binding signal (normalized occupancy) came out at 0.0743.

On to TAAGGGCA, for which the binding signal (normalized occupancy) turned out to be 0.0747.

Turning to ACTCTCGA, the binding signal (normalized occupancy) worked out at 0.0716.

Take ACAACTCT: the binding signal (normalized occupancy) is 0.0733.

As for AACGCGGG, the binding signal (normalized occupancy) was 0.0715.

As to CCCGAATA, the binding signal (normalized occupancy) stood at 0.0758.

Regarding AGGCCTCC, the binding signal (normalized occupancy) came out at 0.0686.

For the sequence CTAAGTAG, the binding signal (normalized occupancy) turned out to be 0.0773.

In the case of CGCATCAG, the binding signal (normalized occupancy) worked out at 0.0761.

Consider AGTCAGGG, for which the binding signal (normalized occupancy) came out at 0.0757.

As for AACGGCCG, the binding signal (normalized occupancy) worked out at 0.069.

On to GGCTATCA, for which the binding signal (normalized occupancy) is 0.0738.

For CAGATACA, the binding signal (normalized occupancy) turned out to be 0.0802.

Regarding AGTACAAA, the binding signal (normalized occupancy) worked out at 0.0758.

Consider ACAGCGAA, for which the binding signal (normalized occupancy) was found to be 0.0686.

On to ACAAGGGT, for which the binding signal (normalized occupancy) was found to be 0.0803.

As for ACGGGTTA, the binding signal (normalized occupancy) came to 0.0794.

TAGGTGCA: the binding signal (normalized occupancy) amounted to 0.0786.

Consider AAATGCTG, for which the binding signal (normalized occupancy) is 0.0762.

As for ATTAGGAG, the binding signal (normalized occupancy) turned out to be 0.0749.

With AGAACAGA, the binding signal (normalized occupancy) came out at 0.0719.

Take CGGCAGGA: the binding signal (normalized occupancy) came out at 0.0662.

In the case of AATAGCAT, the binding signal (normalized occupancy) was found to be 0.0903.

For the sequence ACACTTAC, the binding signal (normalized occupancy) came to 0.0756.

Regarding TACACTAA, the binding signal (normalized occupancy) came out at 0.0779.

With ATTGTAAA, the binding signal (normalized occupancy) stood at 0.0758.

With ACCAAGGT, the binding signal (normalized occupancy) turned out to be 0.0688.

For GTAATGAC, the binding signal (normalized occupancy) was 0.0783.

On to ATTTTTGA, for which the binding signal (normalized occupancy) is 0.0755.

In the case of AGCAATGG, the binding signal (normalized occupancy) turned out to be 0.0692.

With CGACACTC, the binding signal (normalized occupancy) is 0.0757.

Turning to CAACCGCC, the binding signal (normalized occupancy) worked out at 0.0694.

On to AGCCTGCC, for which the binding signal (normalized occupancy) worked out at 0.0726.

CCCGGCAA: the binding signal (normalized occupancy) amounted to 0.0691.

Take CCGGGGAC: the binding signal (normalized occupancy) was determined as 0.0735.

As for AAACACCC, the binding signal (normalized occupancy) is 0.0791.

Turning to GTCACACA, the binding signal (normalized occupancy) worked out at 0.0866.

As to AATCAACT, the binding signal (normalized occupancy) was 0.074.

CTTCTGGC: the binding signal (normalized occupancy) was 0.066.

As to TAACATCA, the binding signal (normalized occupancy) was determined as 0.081.

Regarding CGAAGGGA, the binding signal (normalized occupancy) came to 0.0709.

GTCGACAA: the binding signal (normalized occupancy) was 0.0718.

Turning to ACGTCTAT, the binding signal (normalized occupancy) is 0.0824.

With AGGGGCGG, the binding signal (normalized occupancy) amounted to 0.0739.

With GTGGTTTA, the binding signal (normalized occupancy) stood at 0.0801.

As for GGAACCAC, the binding signal (normalized occupancy) was 0.0736.

CGGTTGAG: the binding signal (normalized occupancy) came out at 0.0679.

Take AGGACCCT: the binding signal (normalized occupancy) came out at 0.0708.

For the sequence AACATATC, the binding signal (normalized occupancy) was found to be 0.0856.

Regarding CTTATACA, the binding signal (normalized occupancy) amounted to 0.0827.

As for CCACTAGG, the binding signal (normalized occupancy) came to 0.0766.

Regarding CAACACTG, the binding signal (normalized occupancy) stood at 0.0764.

Take ATGATGAA: the binding signal (normalized occupancy) turned out to be 0.0854.

For the sequence AGATAACC, the binding signal (normalized occupancy) amounted to 0.0791.

Consider AGCGTGAA, for which the binding signal (normalized occupancy) was found to be 0.0854.

Turning to TCTCCACA, the binding signal (normalized occupancy) was found to be 0.0763.

As for CCACGGCA, the binding signal (normalized occupancy) turned out to be 0.0858.

TAGTGATA: the binding signal (normalized occupancy) came out at 0.0798.

Consider CGGGGAAG, for which the binding signal (normalized occupancy) is 0.0714.

As to AACCGTTG, the binding signal (normalized occupancy) came out at 0.0784.

Turning to AGCTCAAC, the binding signal (normalized occupancy) was determined as 0.0682.

On to GATTTCCA, for which the binding signal (normalized occupancy) was 0.0734.

As for CTGCTAAG, the binding signal (normalized occupancy) amounted to 0.0693.

On to ACCTAAGC, for which the binding signal (normalized occupancy) turned out to be 0.0714.

For AATCTGAA, the binding signal (normalized occupancy) was found to be 0.0757.

As for ACTAAATA, the binding signal (normalized occupancy) turned out to be 0.0771.

As for AGGCTCAT, the binding signal (normalized occupancy) was 0.0751.

For the sequence GCCCCCCA, the binding signal (normalized occupancy) came out at 0.0777.

In the case of AAGCCATC, the binding signal (normalized occupancy) is 0.0756.

In the case of CGTCGAAG, the binding signal (normalized occupancy) was 0.0714.

For the sequence GTATTGAA, the binding signal (normalized occupancy) came to 0.0793.

In the case of AGTACTTC, the binding signal (normalized occupancy) amounted to 0.0673.

Consider ATTGAATC, for which the binding signal (normalized occupancy) was found to be 0.0785.

As to AACACCTG, the binding signal (normalized occupancy) was 0.0895.

For the sequence CCTCCACC, the binding signal (normalized occupancy) amounted to 0.0784.

For CTAGCAGC, the binding signal (normalized occupancy) stood at 0.0696.

Take CTCCGTTA: the binding signal (normalized occupancy) was found to be 0.0722.

Take ATTCGGTG: the binding signal (normalized occupancy) was 0.0777.

Take GCGCAGGA: the binding signal (normalized occupancy) worked out at 0.0691.

Take CTATTTGA: the binding signal (normalized occupancy) was 0.0758.

On to ACCGCCTG, for which the binding signal (normalized occupancy) was 0.083.

With CTGACCGC, the binding signal (normalized occupancy) was 0.0743.

As for AAGAGCCG, the binding signal (normalized occupancy) came out at 0.0673.

For CCAGCCTA, the binding signal (normalized occupancy) was found to be 0.0697.

Regarding ACACCGCA, the binding signal (normalized occupancy) stood at 0.0731.

For the sequence AAGCGACG, the binding signal (normalized occupancy) worked out at 0.0703.

Turning to ACCAGGTG, the binding signal (normalized occupancy) was determined as 0.0893.

In the case of ATCCCAAC, the binding signal (normalized occupancy) was found to be 0.0789.

As to TTACTAAA, the binding signal (normalized occupancy) turned out to be 0.0728.

Regarding AGGAATTC, the binding signal (normalized occupancy) turned out to be 0.073.

Regarding AGAACTTC, the binding signal (normalized occupancy) came to 0.0693.

Take CCGTAGTA: the binding signal (normalized occupancy) came out at 0.0713.

Take GGTAAGAC: the binding signal (normalized occupancy) worked out at 0.0711.

GGATACAA: the binding signal (normalized occupancy) is 0.0778.

As for GATCCAAA, the binding signal (normalized occupancy) was 0.0712.

Consider GCTTCACC, for which the binding signal (normalized occupancy) is 0.0668.

Consider GGGCGCAC, for which the binding signal (normalized occupancy) stood at 0.0766.

As for GATACGGA, the binding signal (normalized occupancy) was determined as 0.0782.

As for GTTACGTA, the binding signal (normalized occupancy) came to 0.0751.

For TATACCAA, the binding signal (normalized occupancy) stood at 0.0889.

With AAGCCTCA, the binding signal (normalized occupancy) was 0.07.

Regarding GTTCATAA, the binding signal (normalized occupancy) is 0.0811.

For the sequence ATCACATA, the binding signal (normalized occupancy) worked out at 0.0859.

On to GAGACTCC, for which the binding signal (normalized occupancy) amounted to 0.0714.

For the sequence ATCTCGGA, the binding signal (normalized occupancy) was determined as 0.068.

On to ATTGAGGG, for which the binding signal (normalized occupancy) was 0.0756.

On to GAATGTCA, for which the binding signal (normalized occupancy) stood at 0.0751.

On to GTGCACAC, for which the binding signal (normalized occupancy) was 0.0921.

For the sequence CAGGGAGA, the binding signal (normalized occupancy) was 0.0751.

In the case of AAGCTTAA, the binding signal (normalized occupancy) is 0.0702.

Take AGCGTTAG: the binding signal (normalized occupancy) worked out at 0.0756.

For the sequence ATCCAGGC, the binding signal (normalized occupancy) turned out to be 0.0783.

On to ACGCCCGC, for which the binding signal (normalized occupancy) came out at 0.0813.

With ACTTTGGA, the binding signal (normalized occupancy) was found to be 0.0703.

In the case of AAGGTCCG, the binding signal (normalized occupancy) was 0.0761.

In the case of AAAGGTAT, the binding signal (normalized occupancy) was determined as 0.0771.

As for ACTGGCAT, the binding signal (normalized occupancy) was 0.0763.

Take CCAGGAAC: the binding signal (normalized occupancy) worked out at 0.0704.

For CCAATATC, the binding signal (normalized occupancy) is 0.0803.

Regarding AAGATTAG, the binding signal (normalized occupancy) stood at 0.0757.

Turning to ACAACGCA, the binding signal (normalized occupancy) was 0.0833.

On to ATTGGGCC, for which the binding signal (normalized occupancy) worked out at 0.0677.

Take TGACGCCA: the binding signal (normalized occupancy) came to 0.0771.

Take AAGCCGAT: the binding signal (normalized occupancy) was 0.0668.

As for GATCAATA, the binding signal (normalized occupancy) was 0.0801.

ACTCCCTG: the binding signal (normalized occupancy) was 0.071.

On to GGACCTCC, for which the binding signal (normalized occupancy) was 0.0678.

TTCTGAAA: the binding signal (normalized occupancy) worked out at 0.0747.

Regarding AACTTTCA, the binding signal (normalized occupancy) worked out at 0.0708.

Turning to CAGTTTTC, the binding signal (normalized occupancy) stood at 0.0717.

Consider CAATGACA, for which the binding signal (normalized occupancy) turned out to be 0.0813.

For TATTTGCA, the binding signal (normalized occupancy) was 0.0802.

Take CTTAGTCC: the binding signal (normalized occupancy) came to 0.0725.

Consider ATTTCTAA, for which the binding signal (normalized occupancy) is 0.0757.

As to AAGGACCA, the binding signal (normalized occupancy) turned out to be 0.0704.

Consider AAGACGGG, for which the binding signal (normalized occupancy) amounted to 0.0754.

On to ACTGCGGC, for which the binding signal (normalized occupancy) was 0.0713.

As for CAATTTTC, the binding signal (normalized occupancy) came out at 0.0732.

On to ACAGTCGC, for which the binding signal (normalized occupancy) was 0.0719.

As to GATCAAGC, the binding signal (normalized occupancy) was found to be 0.0745.

As for AAATATGT, the binding signal (normalized occupancy) is 0.0809.

Turning to TATATAAA, the binding signal (normalized occupancy) came out at 0.0828.

For ATGTAAAC, the binding signal (normalized occupancy) came out at 0.0776.

For ACATTGAT, the binding signal (normalized occupancy) is 0.0824.

Turning to CTGCCGCC, the binding signal (normalized occupancy) was found to be 0.0675.

With AACGGCTC, the binding signal (normalized occupancy) came out at 0.0724.

As for CAATCGAA, the binding signal (normalized occupancy) amounted to 0.0732.

As for ATTGGCCA, the binding signal (normalized occupancy) is 0.0751.

On to AAAACACA, for which the binding signal (normalized occupancy) turned out to be 0.077.

Turning to ACTGCCCA, the binding signal (normalized occupancy) amounted to 0.0813.

As for AACAATCT, the binding signal (normalized occupancy) was determined as 0.0759.

In the case of CCTACAAA, the binding signal (normalized occupancy) is 0.0728.

As for GTCAGCGA, the binding signal (normalized occupancy) worked out at 0.0751.

For the sequence ACCGTACC, the binding signal (normalized occupancy) came out at 0.0739.

Regarding CCAAATCA, the binding signal (normalized occupancy) was found to be 0.0792.

With AGCGACCA, the binding signal (normalized occupancy) amounted to 0.07.

Consider CTGTTCGC, for which the binding signal (normalized occupancy) came to 0.0713.

On to ATAGGTAG, for which the binding signal (normalized occupancy) is 0.0776.

Regarding CCCTGTAC, the binding signal (normalized occupancy) was 0.0816.

For the sequence GATCAAAC, the binding signal (normalized occupancy) worked out at 0.0751.
